These results are taken from ChEMBL document CHEMBL4888484, “Replenishing the malaria drug discovery pipeline: Screening and hit evaluation of the MMV Hit Generation Library 1 (HGL1) against asexual blood stage Plasmodium falciparum ,using a nano luciferase reporter read-out” (2022).

Molecules are shown by their SMILES. Out of some 150,000 compounds screened, about 540 (0.36%) showed an effect of 50% or more. The list shows a part of the results.

The subject of this experiment is Plasmodium falciparum. In words: Primary screen in NF54 nanoGlo assay, in single point, at 2uM, 72h; a lower Z score goes with more inhibition. The experiment is classed as functional, Erythrocyte. The following applies: timepoint 72 hour.
As usually defined, the % Inhibition is the relative decrease from the control value, in per cent. On to `O=C(CCNS(=O)(=O)c1ccc(F)c(F)c1)NCCc1nnc2ccccn12`, for which the “% Inhibition” value is reported as -9% and the Z score worked out at 1.72.

In the case of `Cn1c(CCc2ccccc2NS(=O)(=O)c2cccc(C(F)(F)F)c2)nc2ccccc21`, the “% Inhibition” value is given as -6% and the Z score stood at 0.76.

`Cc1cccc(CNC(=O)Nc2ccc(N3CCOCC3)nc2)n1`: the “% Inhibition” value was -5% and the Z score was 0.89.

With `CC1(C)C(=O)N(Cc2cnn(CCF)c2)C(=O)N[C@@H]1c1ccccc1`, the “% Inhibition” value turned out to be 0% and the Z score is given as 0.03.

For the compound `O=C(NCCc1ccc(F)cc1)[C@@H]1CCCN1C(=O)Nc1ccc2c(c1)OCCO2`, the “% Inhibition” value is recorded as -12% and the Z score worked out at 1.35.

Take `Cc1cc(C)c(CN2CCO[C@]3(CNCCOC3)C2)c(-n2cccn2)c1`: the “% Inhibition” value came to 3% and the Z score is -0.62.

Regarding `Cc1cc(C)n([C@@H](C)C(=O)NCCc2nc3c(F)cccc3n2C)n1`, the “% Inhibition” value was -18% and the Z score turned out to be 2.86.

`N#Cc1ccccc1CN1CCN(C(=O)C2CCCC2)CC1`: the “% Inhibition” value is recorded as -13% and the Z score is on record as 1.15.

For the compound `CC(C)OCCCNc1ccccc1S(N)(=O)=O`, the “% Inhibition” value worked out at 1% and the Z score is recorded as -0.08.

Regarding `CO[C@@H](C)c1nnc(NC(=O)c2ccncc2Cl)s1`, the “% Inhibition” value is recorded as -2% and the Z score is 0.34.

Take `Cc1n[nH]c(=O)nc1NC1CCCCC1C` (stereo unspecified): the “% Inhibition” value is reported as 1% and the Z score is -0.18.

In the case of `CCOc1ccc(C(=O)N2CCN(c3cc(-n4cnc(C)c4C)ncn3)CC2)cc1`, the “% Inhibition” value is -28% and the Z score is on record as 2.46.

Take `CC(C)C(C)NC(=O)CNC(C)(CO)C1CCCCC1` (stereo unspecified): the “% Inhibition” value was found to be 0% and the Z score stood at 0.03.

In the case of `CC[C@H](NC(=O)c1ccn(C(C)C)n1)c1ncnn1CC`, the “% Inhibition” value was -2% and the Z score stood at 0.19.

Regarding `Cc1noc(Cn2c(=O)c3ccccc3n(CC(=O)Nc3ccc(F)cc3F)c2=O)n1`, the “% Inhibition” value came out at 38% and the Z score was -5.48.

For the compound `C[C@@H](C(=O)NCC(F)(F)F)N(C)CC1CCC1`, the “% Inhibition” value was determined as 3% and the Z score is -0.37.

`CC(=O)N[C@H]1CCO[C@@H]1c1ccnn1C(C)C`: the “% Inhibition” value is on record as 6% and the Z score is on record as -1.12.

Consider `COc1ccc(C(=O)NCc2cc3cc(Cl)ccc3[nH]2)cc1COc1ccccc1Cl`, for which the “% Inhibition” value was -12% and the Z score is listed as 1.47.

With `CC(NC(=O)[C@@]12CCCC[C@H]1CN(C(=O)OC(C)(C)C)C2)c1ccncc1` (stereo partly specified), the “% Inhibition” value came out at 0% and the Z score is -0.03.

Turning to `c1ccc([C@H](NCc2cccnc2)c2ccc3c(c2)CCCO3)cc1`, the “% Inhibition” value was -2% and the Z score came out at 0.29.

Take `CO[C@H]1COC[C@@H]1NC(=O)c1cnc2c(c1)CCCC2`: the “% Inhibition” value is recorded as -4% and the Z score stood at 0.47.

`CCc1ccc2ncn(C[C@H]3CCN(C)C3)c(=O)c2c1`: the “% Inhibition” value was 6% and the Z score is listed as -0.79.

In the case of `Cc1c(Cn2ccnc2-c2ccc3c(c2)CC(C)(C)O3)cnn1C`, the “% Inhibition” value is given as -12% and the Z score is listed as 1.57.

As to `CCOCCNC(=O)NCc1ccc(Br)cc1F`, the “% Inhibition” value is -3% and the Z score stood at 0.43.

As to `O=C(NCCNC(=O)N1CCc2c(F)cc(F)cc2C1)c1ccn[nH]1`, the “% Inhibition” value is reported as -19% and the Z score is reported as 2.45.

For `CN(CCc1ccccc1Cl)CC(=O)N1CCCC1`, the “% Inhibition” value was -13% and the Z score is given as 1.17.

On to `Cn1nc(-c2ccc(F)cc2C(F)(F)F)nc1N1CCOCC1`, for which the “% Inhibition” value is 0% and the Z score is listed as -0.05.

For the compound `Cc1cccc(C)c1OCC(=O)NCCC(C)C`, the “% Inhibition” value is given as -27% and the Z score was 3.18.

`N#Cc1ncn(CC(=O)N2CCN(CC(=O)Nc3ccccc3C(F)(F)F)CC2)n1`: the “% Inhibition” value was -12% and the Z score was determined as 2.21.

As to `CC(C)COc1cccc(CN[C@H]2CC[C@@H](CO)C2)c1`, the “% Inhibition” value stood at 3% and the Z score is -0.62.

Take `O=C(Nc1ccc2c(c1)OCO2)c1nn2c(C(F)(F)F)cc(-c3ccccc3)nc2c1Br`: the “% Inhibition” value is reported as -4% and the Z score is recorded as 0.67.

For the compound `CCc1ccc(S(=O)(=O)Nc2ncn(Cc3ccncc3)n2)s1`, the “% Inhibition” value was determined as 6% and the Z score was -0.91.

`CCc1nc2c(s1)[C@@H](N(C)Cc1noc(C(C)C)n1)CCC2`: the “% Inhibition” value is recorded as -8% and the Z score is given as 1.23.

Take `O=C1CC[C@](C(=O)N2Cc3cccc(F)c3C2)(c2ccccc2)CN1`: the “% Inhibition” value came to 30% and the Z score is reported as -3.4.

Consider `CN(CCN)c1ccc(Br)cc1C#N`, for which the “% Inhibition” value was found to be 36% and the Z score is -0.87.

On to `C[C@@H](C1CC1)n1cc(NC(=O)N2CCN(c3cccs3)CC2)cn1`, for which the “% Inhibition” value is 0% and the Z score is listed as 0.04.

As for `Cc1ccc(NC(=O)NC(C)(C)C)cc1C`, the “% Inhibition” value is given as -4% and the Z score came out at 0.59.

Regarding `O=C([C@@H](O)c1ccccc1)N1CCC(c2nccn2Cc2ccccc2)CC1`, the “% Inhibition” value was -14% and the Z score was found to be 1.55.

As for `COCC(C)NC(C(N)=O)c1ccc(Br)cc1F` (stereo unspecified), the “% Inhibition” value is listed as -12% and the Z score is 1.24.

On to `CC(=O)N1CC[C@@]2(O)CCN(CC(c3ccccc3)c3ccccc3)C[C@H]2C1`, for which the “% Inhibition” value was -6% and the Z score stood at 1.06.

In the case of `O=C(CCc1conc1-c1ccccc1F)NCC1CCCCC1`, the “% Inhibition” value is -10% and the Z score stood at 1.31.

For the compound `CCC[C@H]1CN(C(=O)c2scc3c2OCCO3)C[C@@H]1NS(C)(=O)=O`, the “% Inhibition” value is 13% and the Z score was -1.78.

For `Cc1cc(C(=O)N2CCNC(=O)c3c(C)cccc32)c2ccccc2n1`, the “% Inhibition” value is on record as 0% and the Z score came to 0.06.
